In the assay the test system is MX-1 breast xenograft, nude mice, tumor weight T/C. In words: NCI In Vivo Anticancer Drug Screen. Data for tumor model Human Mammary Carcinoma MX-1 Xenograft (intrarenal inoculation) in NU/NU Swiss (nude) mice. Conditions: endpoint: mean tumor weight change, higher = larger tumour. The method, boiled down: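 Activity is given as a ratio, with each measurement in the compound-treated arm divided by the matching measurement in vehicle-dosed controls. Tumour size or survival serves as the measured parameter.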
In general terms: In xenograft studies the graft and the host belong to different species.

Setting [1] is: dose: 16.0 mg/kg/injection, schedule: Q01DX010 (sc), vehicle: saline.

Structures are written as SMILES. Inconclusive results are not listed. A number of entries come with more than one value. Only these are listed. There may be further records. Results that share an entry are repeats (runs, samples, wells, individuals or studies).

In the case of `C[n+]1c(-c2cccc(OCCOCCOc3cccc(-c4c5cc(N)ccc5c5ccc(N)cc5[n+]4C)c3)c2)c2cc(N)ccc2c2ccc(N)cc21`, the T/C runs as follows: (dose: 8.0 mg/kg/injection, schedule: Q04DX003 (sc), vehicle: water) 112 % of control and 155 % of control; (dose: 16.0 mg/kg/injection, schedule: Q04DX003 (sc), vehicle: water) 18 % of control and 175 % of control; (dose: 32.0 mg/kg/injection, schedule: Q04DX003 (sc), vehicle: water) 38 % of control and 165 % of control.

For `N[C@H](C(=O)O)[C@@H]1CC(Cl)=NO1`, the T/C reads like this: (dose: 2.0 mg/kg/injection, schedule: Q01DX010 (sc), vehicle: saline) -52 % of control and 1 % of control; (dose: 4.0 mg/kg/injection, schedule: Q01DX010 (sc), vehicle: saline) -98 % of control, -84 % of control, -36 % of control; under setting [1], -92 % of control and 5 % of control.

As for `CCCCCCCCCCCCCCCC(=O)Nc1ccn(C2OC(CO)C(O)C2O)c(=O)n1` (stereo not drawn), the T/C is, setting by setting: (dose: 150.0 mg/kg/injection, schedule: Q04DX003 (sc), vehicle: water) 5 % of control and 92 % of control; (dose: 300.0 mg/kg/injection, schedule: Q04DX003 (sc), vehicle: water) 1 % of control, 8 % of control, 85 % of control; (dose: 600.0 mg/kg/injection, schedule: Q04DX003 (sc), vehicle: water) 1 % of control and 68 % of control.

Turning to `OCCN1CCN(CC/C=C2/c3ccccc3Sc3ccc(Cl)cc32)CC1`, for the setting “dose: 100.0 mg/kg/injection, schedule: Q04DX003 (sc), vehicle: saline”, the T/C was 21 % of control and 58 % of control.

For the compound `Cc1c(CNc2ccc(C(=O)NC(CC(=O)O)C(=O)O)cc2)ccc2nc(N)nc(N)c12` (stereo not drawn), the T/C is, setting by setting: (dose: 12.0 mg/kg/injection, schedule: Q04DX003 (sc), vehicle: saline with Tween-80) 24 % of control and 54 % of control; (dose: 24.0 mg/kg/injection, schedule: Q04DX003 (sc), vehicle: saline with Tween-80) 14 % of control, 34 % of control, 45 % of control.

For the compound `Cc1c2ccncc2c(C)c2c1[nH]c1ccccc12`, the T/C (dose: 12.5 mg/kg/injection, schedule: Q01DX010 (sc), vehicle: saline) was 69 % of control and 221 % of control; the T/C (dose: 25.0 mg/kg/injection, schedule: Q01DX010 (sc), vehicle: saline) was 52 % of control, 54 % of control, 96 % of control.

For `Nc1ncnc2c1ncn2C1OC(COP(=O)(O)O)C(O)C1O` (stereo not drawn), the T/C runs as follows: (dose: 100.0 mg/kg/injection, schedule: Q01DX010 (sc), vehicle: saline) 58 % of control and 123 % of control; (dose: 200.0 mg/kg/injection, schedule: Q01DX010 (sc), vehicle: saline) 30 % of control, 67 % of control, 110 % of control.

In the case of `O=NN(CCCl)C(=O)NCCCl`, the T/C reads like this: under setting [1], 10 % of control and 59 % of control; (dose: 30.0 mg/kg/injection, schedule: Q04DX003 (sc), vehicle: suspension in saline) 2 % of control and 28 % of control; (dose: 60.0 mg/kg/injection, schedule: Q04DX003 (sc), vehicle: suspension in saline) -51 % of control and 41 % of control.

Consider `CC1OC(=O)C(C(C)C)NC(=O)C(C(C)C)OC(=O)C(C(C)C)NC(=O)C(C)OC(=O)C(C(C)C)NC(=O)C(C(C)C)OC(=O)C(C(C)C)NC(=O)C(C)OC(=O)C(C(C)C)NC(=O)C(C(C)C)OC(=O)C(C(C)C)NC1=O` (stereo not drawn), for which the T/C (dose: 20.0 mg/kg/injection, schedule: Q01DX010 (sc), vehicle: saline with Tween-80) is 46 % of control and 73 % of control.

For the compound `CCOC(=O)C(CC(C)C)NC(=O)C(Cc1ccc(N(CCCl)CCCl)cc1)NC(C)=O` (stereo not drawn), the T/C reads like this: (dose: 75.0 mg/kg/injection, schedule: Q04DX003 (sc), vehicle: saline with Tween-80) -99 % of control, 1 % of control, 22 % of control; (dose: 150.0 mg/kg/injection, schedule: Q04DX003 (sc), vehicle: saline with Tween-80) -98 % of control, -66 % of control, -37 % of control; (dose: 300.0 mg/kg/injection, schedule: Q04DX003 (sc), vehicle: saline with Tween-80) -99 % of control, -94 % of control, -69 % of control.

The values are drawn from PubChem BioAssay AID296 (DTP/NCI, 2004).
